Laboratory results from PubChem BioAssay AID1508623 (National Center for Advancing Translational Sciences (NCATS), 2021).
Screen size: about 48,000 compounds; about 450 (0.94%) were called active. About 19% were inconclusive and are not listed. Calls follow the shape of the dose curve; as a rule, active = well fitted inhibition curve with a large enough effect; inconclusive = small, poorly fitted or top-dose-only effect; inactive = no such curve, though single readings can be large or run the other way. The list shows a part of the results.

assay: Primary qHTS for Identification of Small Molecule Inhibitors of Huntingtin Promoter Activity; details: HEK293 HTT promoter firefly luciferase reporter (activity 0% = vehicle and -100% = no light), 24 h; series mostly up to 57.5 µM; activity change, negative = inhibition: at the top concentration; also: nearly all actives have a fitted effect of over 50% in size
Procedure, shortened: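 Firefly luciferase readout (Dual-Glo, 10 min RT) after 24 h, 37 °C compound exposure (final up to 57.5 uM) of HEK293 reporter cells cultured 24 h beforehand; PTC124 at 50 uM final as control inhibitor; activity scaled vehicle 0%, zero RLU -100%.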

Activity change, negative = inhibition, inactive:
COc1ncnc(NS(=O)(=O)c2ccc(N)cc2)c1OC
CCOc1ccc(CNC(=O)c2ccc3c(Cl)c4c(nc3c2)CCCC4)cc1 3.45%
COc1cc(Cl)c(C)cc1NC(=O)CC1Oc2ccccc2NC1=O (stereo not drawn) -23.2%
O=C(Oc1ccccc1)c1ccccc1O -0.582%
COc1ccc(C(=O)Nc2ccc(-c3nc4ncccc4o3)cc2C)cc1Br 13.6%
CCn1c(=O)c2cc(C(=O)Nc3cccc(C(F)(F)F)c3)sc2c2ccccc21 -2.23%
CCNC(=O)CCCN1C(=O)CCn2nc(-c3cccn3C)cc21 -12.4%
O=S(=O)(c1ccc(C2CCCCC2)cc1)N1CCN(c2cc(Cl)ccc2Cl)CC1 -1.31%
CCC(Sc1nc2nccnc2c(=O)n1Cc1ccccc1Cl)C(=O)NC1CCCCC1 (stereo not drawn) -17.9%
Cc1ccc(CNC(=O)CSCc2ccccc2C)cc1 8.86%
Cc1ccc2nc(NCc3ccccc3)c3nncn3c2c1 -4.06%
CCn1cc(C(=O)NCCc2ccc(Cl)cc2)c(=O)c2cc(S(=O)(=O)N(C)C3CCCCC3)ccc21 -1.43%
COc1ccc(CCNC(=O)c2cc3c(=O)n4cccc(C)c4nc3n2C)cc1 2.13%
Cc1ccc(-c2csc(-c3c(N)c(C(=O)c4ccc5c(c4)OCO5)n4ccccc34)n2)cc1C -23.6%
COc1ccc(C(=O)c2ccccc2)c(O)c1 22.2%
COc1ccc(NC(=O)CC2Oc3ccc(C)cc3NC2=O)cc1Cl (stereo not drawn) -26.1%
COc1c(N2C[C@@H]3CCCN[C@@H]3C2)c(F)cc2c(=O)c(C(=O)O)cn(C3CC3)c12 9.73%
Cc1cc(C)cc(-n2ccn(CC(=O)NCCc3ccccc3)c(=O)c2=O)c1 -4.21%
COc1cc2c(cc1OC)C(COc1ccc3c(C)cc(=O)oc3c1)N(C(=O)Cc1ccc(F)cc1)CC2 (stereo not drawn) -17.2%
CCOc1ccc(N(CC(=O)NCc2ccc(OC)cc2)S(=O)(=O)c2c(C)[nH]c(=O)[nH]c2=O)cc1 4.96%
COc1cccc(C(=O)N(Cc2cccc(F)c2)C2CCS(=O)(=O)C2)c1 (stereo not drawn) -7.79%
COc1ccc(Cn2ccnc2SCC(=O)Nc2ccc3c(c2)OCCO3)cc1 11.4%
Cc1ccc2c(c1)N(CC(=O)Nc1ccccc1C(F)(F)F)C(=O)c1cccnc1O2 -18%
Cc1c(Cl)cccc1NC(=O)c1oc2ccc(S(=O)(=O)N3CCCCCC3)cc2c1C -18.4%
COc1cccc(OC)c1C(=O)Nc1ccc(-c2nc3ncccc3o2)cc1 -7.63%
COc1cccc(CN(C(=O)COc2ccc(Cl)c(C)c2)C2CCS(=O)(=O)C2)c1 (stereo not drawn) -20.7%
COc1ccc(C(=O)CC(=O)c2ccc(C(C)(C)C)cc2)cc1
Cc1ccc(Sc2ccc(N3CCC(C(=O)Nc4cc(C)cc(C)c4)CC3)nn2)cc1 1.53%
Cc1ccc(C2CC(=O)n3nc(-c4ccc(Cl)cc4)nc3S2)cc1 (stereo not drawn) 7.52%
O=C(Cn1c(=O)n(-c2ccccc2)c(=O)c2c3c(sc21)CCC3)c1ccc(F)cc1 -10%
Cc1c(Cl)cccc1-n1ncc(C(=O)NCCN2CCN(C)CC2)c1C1CCN(C(=O)OC(C)(C)C)CC1 -3.84%
O=C(NCc1ccccc1)c1ccc2c(c1)N(Cc1ccccc1F)C(=O)c1ccccc1S2=O (stereo not drawn) -19.4%
CCc1ccc(NC(=O)CSc2nc3c([nH]c4ccccc43)c(=O)n2-c2ccc(C)cc2)cc1 -26.1%
Cc1ccc(CNC(=O)CCS(=O)(=O)c2cc3c4c(c2)CCN4C(=O)CC3)cc1 -7.96%
CCN(CC)c1cc(C)c2cc(NC(=O)c3ccc(OC)c(OC)c3)ccc2n1 -6.68%
CCOC(=O)c1scc(-c2ccccc2)c1S(=O)(=O)N1CCN(c2ccc(Cl)cc2)CC1 -23.1%
COc1ccccc1C(=O)Nc1c(C(=O)Nc2cc(Cl)ccc2C)sc2nc(C)cc(C)c12 -9.38%
COc1cccc(N2CCN(C(=O)c3cnc4c(-c5ccccc5)c(C)nn4c3C)CC2)c1 -10.2%
Cc1ccccc1NC(=O)NCCc1c[nH]c2ccccc12 -20.5%
COc1cccc2cc(C(=O)N3CCN(c4cc(C)ccc4C)CC3)c(=O)oc12 -9.67%
Cc1nc(SCC(=O)N2CCN(c3ccccc3)CC2)[nH]c(=O)c1C -13.3%
CCc1ccccc1NC(=O)CN(C)S(=O)(=O)c1cccc2nsnc12 -24.7%
COc1ccc(-c2ccc(NS(=O)(=O)c3ccc(NC(C)=O)cc3)cc2)nn1 6.03%
COc1ccc(OC)c(NC(=O)c2c(NCc3cccs3)sc3c2CCCCC3)c1 -20.5%
CCOc1cc(CNC(=O)c2cc(-c3ccccc3)n[nH]2)cc(OCC)c1OCC -9.67%
COc1ccc(N2CCN(C(=O)c3cc4c(=O)n(Cc5cccnc5)ccc4nc3C)CC2)cc1 -15.5%
COc1ccc(CCNC(=O)c2cnn(-c3ccc(F)cc3)c2C2CCN(C(=O)OC(C)(C)C)CC2)cc1OC -13.9%
COc1ccc(NC(=O)c2oc3ccc(S(=O)(=O)N4CCOCC4)cc3c2C)c(OC)c1 -1.07%
O=C(CN1C(=O)C2(SCC(=O)N2c2ccc(F)c(F)c2)c2ccccc21)NCCc1ccccc1 (stereo not drawn) -8.49%
CCN(CC)S(=O)(=O)c1ccc(NC(=O)Cn2ncc3c([nH]c4ccccc43)c2=O)cc1 -6.72%
CC(Oc1ccccc1)C(=O)Nc1ccc(C(=O)OCc2cc(=O)n3nc(C(C)C)sc3n2)cc1 (stereo not drawn) 2.65%
CCOc1ccc(/C=C/c2nc(C#N)c(N3CCN(CC)CC3)o2)cc1 -0.177%
Cc1cc(C)cc(OCC(=O)Nc2nc(-c3ccc(F)cc3)ns2)c1 6%
Cc1cc(F)ccc1NC(=O)c1csc2c1CCC(C)C2 (stereo not drawn) 53%
Cc1ccccc1NC(=O)CSc1c(C(C)C)cnc2c1c(=O)n(C)c(=O)n2C -9.72%
CCOc1ccccc1NC(=O)CSc1nc2ccccc2nc1N1CCOCC1 -13.2%
CCCCN(C)CCNC(=O)c1nn(-c2ccc(OC)c(Cl)c2)c(=O)c2c1c1ccccc1n2C 1.69%
Cc1nn(-c2ccccc2)c2sc(C(=O)Nc3ccc(Cl)cc3Cl)cc12 8.3%
COc1ccc(CNC(=O)Cn2c(=O)c3cccn3c3cccnc32)cc1 -8.84%
COc1ccc(C(=O)Nc2nnc(SCc3cc(=O)c4cc(C)ccc4[nH]3)s2)cc1OC 7.1%
Cc1cccn2c(=O)c(C(=O)N3CCN(c4ccccc4F)CC3)cnc12 12.8%
CCN(CC)c1ccc2cc(-c3nnc(Nc4ccc(C)cc4)s3)c(=O)oc2c1 -11%
COC(=O)c1ccc(NC(=O)c2c(NCc3cccc(F)c3)sc3c2CCCC3)cc1 -22.1%
Cc1cc2c(cc1S(=O)(=O)N(CCN(C)C)Cc1ccccc1)OCC(=O)N2 5.49%
COc1ccccc1C(c1c(O)cc(C)n(Cc2ccco2)c1=O)N1CCCCC1 (stereo not drawn) -9.73%
CCC(Oc1ccccc1F)C(=O)Nc1cc(-c2ccccc2)no1 (stereo not drawn) -8.89%
COc1ccc(S(=O)(=O)N(CC(=O)NCCSc2ccc(C)cc2)c2ccc(C)cc2)cc1 -19.4%
CCOc1ccccc1NC(=O)CSc1c2c(nc3ccc(Cl)cc13)CCCC2 -5.62%
CCOc1ccccc1NC(=O)c1nc(S(=O)(=O)Cc2cccc(C)c2)ncc1Cl 5.66%
COc1ccc(-c2noc(CNC(=O)c3cc(OC)c(OC)c(OC)c3)n2)cc1 -5.04%
CC1CCc2onc(C(=O)Nc3ccc(Cl)cc3)c2C1 (stereo not drawn) 78.7%
COc1cccc(-c2nc(-c3ccc(Br)o3)no2)c1 64.6%
Cc1[nH]c2ccc(C(=O)NCCCN3CCCCC3)cc2c1C -7.8%
CC(=O)N1CCC(N(Cc2ccc(C)o2)C(=O)Nc2ccccc2F)CC1 3.11%
Cc1nc2c(c(C)c1CCC(=O)NCc1ccc(F)cc1)c(=O)n(C)c(=O)n2C 6.41%
COc1ccc(NCc2cc3cc4c(cc3n(CC(=O)Nc3ccc(C)cc3C)c2=O)OCO4)cc1 -20.6%
CCOc1c(Br)cc(C2C=C(C(=O)O)Nc3ncnn32)cc1OC (stereo not drawn) -8.52%
CC(=O)N1c2ccccc2C(=O)C1N1CCN(c2ccc(Cl)cc2)CC1 (stereo not drawn) -28.2%
O=C(NCc1ccccc1)c1cc(Sc2cccc(Cl)c2)nc2ccccc12 -17.2%
CCOC(=O)c1cc(OC(=O)c2ccccc2F)n(-c2ccccc2)n1 -1.32%
Nc1nc2c(ncn2COCCO)c(=O)[nH]1
Cc1ccc(-c2nc(S(=O)(=O)c3ccc(F)cc3)c(N3CCN(c4ccccc4)CC3)o2)cc1 -14.4%
CC(C)C[C@H](N)c1nnc(SCc2ccc(Cl)cc2Cl)o1 -29.1%
CC1=C(c2ccc(C(C)C)cc2)S(=O)(=O)N=C1N1CCN(c2ccccc2F)CC1 -24.7%
CN1CCN(C(CNC(=O)C(=O)Nc2ccc(Cl)cc2)c2cccnc2)CC1 (stereo not drawn) -0.507%
Cc1ccc(C)c(N2CCN(C(=O)CCc3nnc4n(C)c(=O)c5ccccc5n34)CC2)c1 -0.169%
CCOC(=O)c1cccnc1SCC(=O)N(CC)c1cccc(C)c1 -26.2%
CC(C)(C)c1ccc(OCC(=O)Nc2ccc(C(=O)OC3CCCCC3)cc2)cc1 3.2%
COc1ccc(F)cc1S(=O)(=O)NCC(c1ccco1)S(=O)(=O)c1cccs1 (stereo not drawn) -7%
CC(C)Cn1nc(NC(=O)c2cccc(Cl)c2)c2cc3ccccc3nc21 -17.9%
CCc1ccccc1NC(=O)c1oc(=O)c2ccccc2c1-c1ccccc1 -25.6%
CCCCCN(CCCCC)C(=O)C(CCC(=O)O)NC(=O)c1ccc(Cl)c(Cl)c1 (stereo not drawn) -11.8%
CCCCOc1cccc(C(=O)Nc2sc3c(c2C(=O)OCC)CCCC3)c1 -6.81%
Cc1cccc2c(=O)cc(CSc3ccccc3NC(=O)C(C)C)[nH]c12 6.47%
COc1cccc(NC(=O)CSc2nc(=O)n(Cc3cccnc3)c3c2CCC3)c1 0%
Cc1ccc2nc3c(cc(C#N)c(=O)n3-c3nnc(SCc4ccc(F)cc4)s3)c(=O)n2c1 -9.06%
COc1ccc(OCC(=O)Nc2ccc(-c3nc4cc(Cl)ccc4o3)cc2)cc1 105%
Cc1ccc(Sc2ccc(N3CCCC(C(=O)Nc4ccc(F)c(Cl)c4)C3)nn2)cc1 (stereo not drawn) -28.2%
